# Source: the BET-seq Pho4 binding data (Le et al. 2018)
# Some of the results follow. Values were computed here from the reads of four pooled replicates and scatter widely.
# Molecular target: T1, Pho4 (S. cerevisiae) (UniProt P07270)
# T1 sequence: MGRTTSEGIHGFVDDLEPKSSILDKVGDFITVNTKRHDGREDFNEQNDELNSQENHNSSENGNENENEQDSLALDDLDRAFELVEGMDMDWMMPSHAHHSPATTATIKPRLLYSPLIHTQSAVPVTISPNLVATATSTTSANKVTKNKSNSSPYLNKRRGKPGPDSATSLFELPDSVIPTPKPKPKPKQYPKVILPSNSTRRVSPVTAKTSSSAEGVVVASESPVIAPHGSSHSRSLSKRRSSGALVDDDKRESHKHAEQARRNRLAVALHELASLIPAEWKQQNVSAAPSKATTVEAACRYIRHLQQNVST
# Test: relative binding free energy (BET-seq); higher = weaker binding
# Conditions: reference: library average
row,Sequence,relative binding free energy
1,TTTGTCACGTGAGTTA,0.28 kcal/mol
2,TTGGGCACGTGCCGTA,-0.2 kcal/mol
3,ATGGGCACGTGAGCAT,0 kcal/mol
4,TTAAGCACGTGGAAAG,-0.01 kcal/mol
5,AAACGCACGTGTGGAG,0.06 kcal/mol
6,TTGTGCACGTGTGTGC,-0.03 kcal/mol
7,GTGCGCACGTGTTTTT,-0.01 kcal/mol
8,ATGCACACGTGTAGGG,0.25 kcal/mol
9,CGGGACACGTGAGTAG,0.2 kcal/mol
10,TTTCTCACGTGCTCGG,0.31 kcal/mol
11,AGTGGCACGTGGATGG,0 kcal/mol
12,TCCGGCACGTGTGGTG,-0.08 kcal/mol
13,CGGGTCACGTGTCTTG,0.13 kcal/mol
14,GAGTGCACGTGGCTTT,-0.07 kcal/mol
15,ACCGGCACGTGGGGGG,-0.27 kcal/mol
16,TCGGCCACGTGGTTTG,-0.15 kcal/mol
17,ATCTTCACGTGGTTTT,0.34 kcal/mol
18,TAAGTCACGTGGTCGT,-0.02 kcal/mol
19,AGCTACACGTGTTTGT,0.1 kcal/mol
20,TGTCTCACGTGATGAT,0.43 kcal/mol
21,GGGTACACGTGGGGTT,0.09 kcal/mol
22,ATGAGCACGTGTCGGG,-0.02 kcal/mol
23,GTTGTCACGTGATATT,0.22 kcal/mol
24,TGGAGCACGTGGTGTG,-0.12 kcal/mol
25,GTTTTCACGTGTAATT,0.4 kcal/mol
26,TTACACACGTGGTTGT,0 kcal/mol

row,Sequence,relative binding free energy
1,TAATACACGTGGGATG,0.04 kcal/mol
2,TCAATCACGTGTGAGT,0.27 kcal/mol
3,CGTGACACGTGGGCGT,-0.11 kcal/mol
4,ATTGGCACGTGTACAT,0.02 kcal/mol
5,GCTTACACGTGGTTGA,0.2 kcal/mol
6,GGATGCACGTGTGGGC,0 kcal/mol
7,GGATTCACGTGCATGT,0.24 kcal/mol
8,GACGTCACGTGCTGGG,0.17 kcal/mol
9,ATTGCCACGTGGGGTA,-0.35 kcal/mol
10,GGGGACACGTGGTCAT,-0.12 kcal/mol
11,ATCCGCACGTGAGGGT,0.07 kcal/mol
12,GGCGTCACGTGGACTG,0.17 kcal/mol
13,AAGGTCACGTGGGAGC,0.06 kcal/mol
14,ATAGACACGTGGAGTT,-0.06 kcal/mol
15,TTCTGCACGTGGTGAG,0.02 kcal/mol
16,TGCGGCACGTGCTATG,-0.18 kcal/mol
17,TGAGACACGTGGTTGT,-0.01 kcal/mol
18,GTTAGCACGTGATATA,0.11 kcal/mol
19,TTGTTCACGTGTCCGG,0.29 kcal/mol
20,CTGTGCACGTGCTGAG,-0.01 kcal/mol
21,TGGTACACGTGTAGTT,0.07 kcal/mol
22,ATCAACACGTGTTATT,0.17 kcal/mol
23,GTTTGCACGTGGCAAG,-0.11 kcal/mol
24,AGACGCACGTGTTTGT,-0.27 kcal/mol
25,TTAAGCACGTGTCGTA,-0.06 kcal/mol
26,GTGGTCACGTGGAGCA,0.18 kcal/mol

row,Sequence,relative binding free energy
1,TTGTGCACGTGTGTTC,0.02 kcal/mol
2,CCATGCACGTGGTGTG,-0.18 kcal/mol
3,CATGGCACGTGGAGTG,-0.04 kcal/mol
4,TTTTTCACGTGTCTGT,0.34 kcal/mol
5,AATAGCACGTGGTTAG,-0.14 kcal/mol
6,TAATGCACGTGATAGG,0.01 kcal/mol
7,GGGTACACGTGGTAAA,0.08 kcal/mol
8,GTGCACACGTGAGGAT,0.38 kcal/mol
9,CTTAGCACGTGGCGGG,-0.1 kcal/mol
10,CTTGACACGTGGGGGT,-0.23 kcal/mol
11,AGTTTCACGTGTTCTA,0.3 kcal/mol
12,GTTAGCACGTGTGTTT,0.1 kcal/mol
13,CAGTACACGTGGGTTG,-0.18 kcal/mol
14,CGTGGCACGTGGGTGC,-0.19 kcal/mol
15,ATTGACACGTGTGTGT,-0.02 kcal/mol
16,TACGGCACGTGAAGGG,0.12 kcal/mol
17,CGCGACACGTGTTGGT,0.2 kcal/mol
18,GGTCACACGTGGGACG,0.17 kcal/mol
19,TCCGTCACGTGTTTTG,0.18 kcal/mol
20,GGGTACACGTGACGGT,0.26 kcal/mol
21,GGTGGCACGTGCACGG,-0.17 kcal/mol
22,TTGGCCACGTGTCGTT,-0.1 kcal/mol
23,TGACGCACGTGTTGGT,-0.04 kcal/mol
24,GTCGTCACGTGGATGG,0.02 kcal/mol
25,TTTGGCACGTGTAGGA,-0.03 kcal/mol
26,TGGAACACGTGCTTGG,-0.04 kcal/mol

row,Sequence,relative binding free energy
1,AGTATCACGTGGTCCG,0.32 kcal/mol
2,ATGGACACGTGGCTGA,-0.02 kcal/mol
3,TCATACACGTGATTGT,0.3 kcal/mol
4,TTTACCACGTGGTTTT,0.01 kcal/mol
5,GTAATCACGTGGATGG,0.06 kcal/mol
6,ATTATCACGTGTTAGG,0.14 kcal/mol
7,GGGTTCACGTGGCCGT,0.39 kcal/mol
8,TTCGGCACGTGAGACG,0.19 kcal/mol
9,ATTGTCACGTGTATGG,0.19 kcal/mol
10,TTGGTCACGTGTATTC,0.12 kcal/mol
11,TTGTACACGTGGGCGC,-0.17 kcal/mol
12,TTAGGCACGTGACGAG,-0.03 kcal/mol
13,TTTGACACGTGATAAT,0.03 kcal/mol
14,TGCGACACGTGGTTCA,0.14 kcal/mol
15,AGTGGCACGTGGCTTA,-0.09 kcal/mol
16,AGGGTCACGTGGGACT,0.01 kcal/mol
17,GGGGGCACGTGTAGCT,-0.07 kcal/mol
18,TATTACACGTGGTATT,-0.02 kcal/mol
19,TTTTACACGTGGAAGT,0.17 kcal/mol
20,TCGTTCACGTGGATAT,0.27 kcal/mol
21,ATGTGCACGTGAGGGC,0.14 kcal/mol
22,GGTAACACGTGCTTGA,0.06 kcal/mol
23,TGGGCCACGTGAGGAA,0.15 kcal/mol
24,CTTGGCACGTGGTATG,-0.26 kcal/mol
25,TTGGACACGTGATATG,0.12 kcal/mol
26,GCGCACACGTGTTGGG,0.06 kcal/mol

row,Sequence,relative binding free energy
1,ATGTTCACGTGCTTTG,0.27 kcal/mol
2,GTTTCCACGTGTCGTG,0.23 kcal/mol
3,CGGTGCACGTGATTTA,0.17 kcal/mol
4,GGGCACACGTGTGCGG,0.09 kcal/mol
5,TAAGACACGTGATGGA,0.27 kcal/mol
6,ATTATCACGTGTTACT,0.25 kcal/mol
7,GTAGGCACGTGTGGGG,0.04 kcal/mol
8,TTATTCACGTGAGGTG,0.4 kcal/mol
9,TAGGTCACGTGCAATT,0.13 kcal/mol
10,TTATTCACGTGATAGC,0.33 kcal/mol
11,TAGGGCACGTGAATGA,0.21 kcal/mol
12,CGTTGCACGTGCTTAG,0.01 kcal/mol
13,TGTGACACGTGAGTTC,0.26 kcal/mol
14,TTAATCACGTGGGAAG,0.05 kcal/mol
15,CTGGTCACGTGATGGC,0.09 kcal/mol
16,ACGGGCACGTGGAGGC,-0.05 kcal/mol
17,GGCTGCACGTGAGGAA,0.32 kcal/mol
18,TCTAGCACGTGGTAAG,-0.01 kcal/mol
19,TATTTCACGTGTTCAG,0.22 kcal/mol
20,GTTAGCACGTGCTAGT,-0.14 kcal/mol
21,TTGTTCACGTGTATCA,0.18 kcal/mol
22,GAGAACACGTGGGATG,0.07 kcal/mol
23,TTGTACACGTGGTCGT,0.04 kcal/mol
24,TTAGTCACGTGTTGGG,0.14 kcal/mol
25,AGGCTCACGTGGATTT,0.24 kcal/mol
26,TGAGACACGTGTGTCG,0.2 kcal/mol

row,Sequence,relative binding free energy
1,TCTGTCACGTGGAATG,0.22 kcal/mol
2,GCGTGCACGTGGCTGG,-0.15 kcal/mol
3,TGGGGCACGTGAGTAC,0.04 kcal/mol
4,TGGCTCACGTGTAAGT,0.14 kcal/mol
5,GAGGCCACGTGAAGTG,0.42 kcal/mol
6,GTGAGCACGTGGACTG,-0.12 kcal/mol
7,TTACACACGTGGTGTG,-0.19 kcal/mol
8,CGGGCCACGTGTGGAT,-0.02 kcal/mol
9,GGGGCCACGTGATGAG,0.21 kcal/mol
10,GAGGGCACGTGGCGTG,-0.16 kcal/mol
11,ATTAGCACGTGACGGG,0.04 kcal/mol
12,ATAGTCACGTGTCATT,0.12 kcal/mol
13,TTGGGCACGTGCACTT,-0.19 kcal/mol
14,TCTATCACGTGATTTG,0.28 kcal/mol
15,TGATGCACGTGGTCTT,-0.08 kcal/mol
16,GTGGTCACGTGTAAGT,0.22 kcal/mol
17,ATGTGCACGTGAATGG,0.23 kcal/mol
18,AGAGTCACGTGGGGCC,0.02 kcal/mol
19,GGGTACACGTGGTAGC,0.09 kcal/mol
20,ATATTCACGTGGAATG,0.13 kcal/mol
21,TATTACACGTGACGTT,0.23 kcal/mol
22,TGTGGCACGTGGGAAC,-0.06 kcal/mol
23,TATTTCACGTGGAAGG,0.48 kcal/mol
24,AGCGGCACGTGGATAG,0 kcal/mol
25,CGGTACACGTGTTGCG,0.04 kcal/mol
26,TAGGGCACGTGCAGGT,-0.25 kcal/mol

row,Sequence,relative binding free energy
1,GCGCTCACGTGGGGTT,-0.06 kcal/mol
2,TAGGACACGTGGAAGT,0.1 kcal/mol
3,GGTGTCACGTGATGTG,0.3 kcal/mol
4,ATGGTCACGTGATGGA,0.29 kcal/mol
5,ATATGCACGTGTAGGT,-0.08 kcal/mol
6,TTAGTCACGTGACTTT,0.28 kcal/mol
7,TGGTGCACGTGAGTCA,0.11 kcal/mol
8,TTGCGCACGTGATGTT,0.09 kcal/mol
9,GTCCGCACGTGATGGG,0.09 kcal/mol
10,TTGCTCACGTGTGTGT,0.21 kcal/mol
11,TTATACACGTGGGGTC,-0.16 kcal/mol
12,TCAGACACGTGGTTGT,-0.02 kcal/mol
13,AGGGTCACGTGCTTTG,0.07 kcal/mol
14,AGTTGCACGTGGAGAT,0.04 kcal/mol
15,GTATGCACGTGGGCAA,-0.07 kcal/mol
16,TTTGCCACGTGGCGTT,-0.21 kcal/mol
17,TCTTACACGTGGGGGA,-0.08 kcal/mol
18,TTTTTCACGTGCGTAG,0.21 kcal/mol
19,TTTTTCACGTGAGCCT,0.32 kcal/mol
20,GGGGACACGTGGGGAG,-0.04 kcal/mol
21,GGCGACACGTGGTCGG,-0.07 kcal/mol
22,ACGGGCACGTGAGTAT,0.07 kcal/mol
23,CGAGACACGTGGTGGG,-0.06 kcal/mol
24,TAATTCACGTGGGGGT,0.08 kcal/mol
25,TTCTACACGTGCGGGG,0.15 kcal/mol
26,GGTCTCACGTGGAGTT,0.37 kcal/mol

row,Sequence,relative binding free energy
1,AGGTTCACGTGGCAGT,0.1 kcal/mol
2,ATTTTCACGTGTGGTC,0.37 kcal/mol
3,TGATGCACGTGGAATG,0.03 kcal/mol
4,AATAGCACGTGAGGGA,0.07 kcal/mol
5,TGGGACACGTGTGGTT,0.07 kcal/mol
6,ATGCTCACGTGTGTGG,0.09 kcal/mol
7,GGTAGCACGTGTGACA,0.03 kcal/mol
8,GTAAGCACGTGTTTTT,0.01 kcal/mol
9,TCGTTCACGTGTGGTG,0.34 kcal/mol
10,TTCGACACGTGTGATG,0.13 kcal/mol
11,AAGGACACGTGGGTGC,-0.13 kcal/mol
12,TGTAGCACGTGCATGG,-0.06 kcal/mol
13,AAAATCACGTGGGGGA,0.09 kcal/mol
14,ATAGACACGTGGGTTG,-0.16 kcal/mol
15,GGGGGCACGTGAAGGC,0.09 kcal/mol
16,TATTGCACGTGGTCGA,-0.18 kcal/mol
17,TACCTCACGTGGGGTG,0.13 kcal/mol
18,GGGGTCACGTGTCTGT,0.2 kcal/mol
19,GAGTGCACGTGGTAGC,-0.04 kcal/mol
20,TAGGACACGTGACGTG,0.24 kcal/mol
21,CTGAACACGTGGGGGT,-0.12 kcal/mol
22,TAATTCACGTGTGTCG,0.23 kcal/mol
23,TAAATCACGTGCGGTT,0.19 kcal/mol
24,TTATTCACGTGTCGTA,0.17 kcal/mol
25,TGTTGCACGTGAAGTA,0.12 kcal/mol
26,TTAATCACGTGTGTAA,0.19 kcal/mol

row,Sequence,relative binding free energy
1,GTATACACGTGGGAAG,0 kcal/mol
2,CTCGTCACGTGGGGGA,-0.08 kcal/mol
3,TATGCCACGTGAGGGG,0.08 kcal/mol
4,ATTTTCACGTGGTTCG,0.26 kcal/mol
5,TTTAGCACGTGCGGGT,-0.09 kcal/mol
6,TTCGTCACGTGACGTT,0.25 kcal/mol
7,GGGGTCACGTGACATG,0.2 kcal/mol
8,ATTGTCACGTGTATTG,0.05 kcal/mol
9,TGGCCCACGTGGGTTG,-0.25 kcal/mol
10,TAGGTCACGTGTTAGG,-0.01 kcal/mol
11,TTACTCACGTGGTATG,0.16 kcal/mol
12,AGTTACACGTGGGGAT,0.11 kcal/mol
13,AGGGGCACGTGCGAGG,-0.08 kcal/mol
14,GGTGCCACGTGGTTAT,-0.13 kcal/mol
15,TTAAGCACGTGCAAGT,-0.01 kcal/mol
16,AGATGCACGTGAGTTG,0.29 kcal/mol
17,CGGCGCACGTGGTATG,-0.29 kcal/mol
18,TTCGTCACGTGAAGGC,0.38 kcal/mol
19,ATGCACACGTGATTGG,0.21 kcal/mol
20,AGCGTCACGTGTATGT,0.07 kcal/mol
21,GGATTCACGTGAATGG,0.35 kcal/mol
22,CGTTACACGTGGTCTG,0.08 kcal/mol
